# Measured values taken from the supplement of paper PMC8728848.
# Some of the results follow.
# B1: DBA (Dolichos biflorus) (protein)
# chain: ANIQSFSFKNFNSPSFILQGDATVSSGKLQLTKVKENGFPLRFPSGRAFYSSPIQIYDKFTGAVASWATSFTVKISAPSKASFADGIAFALVPVGSEPRRNGGYLGVFDSDVYNNSAQTVAVEFDTLSNSGWDPSMKHIGIDVNSIKSIATVSWDLANGENAEILITYNAATSLLVVSLVHPSRRTSYILSERVDITNELPEYVGVGFSATTGLSEGYIETHDVLSWSFASRLPDDSTAEPLDLARYLVRNVL
# What was measured:
# Test in all cases: glycan array binding signal (z-score within array); higher = stronger binding
# Settings in all cases: glycan notation: IUPAC condensed, linker removed
# [1] = molecular target: Neu5Ac(a2-3)Gal(b1-4)GlcNAc(b1-3)Gal(b1-3)GlcNAc
# Outline: (§1)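 The binding signal is a Z-score computed within each array and averaged over linkers. Arrays of the same protein sequence at different concentrations or buffers were also averaged together. Data originate from 3228 arrays in the Consortium for Functional Glycomics database, kept only where the protein sequence was available.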
# [2] = molecular target: Neu5Ac(a2-3)Gal(b1-4)GlcNAc(b1-3)Gal(b1-4)GlcNAc
# Outline: as §1
# [3] = molecular target: Neu5Ac(a2-3)Gal(b1-4)GlcNAc(b1-3)Gal(b1-4)GlcNAc(b1-2)Man(a1-3)[Neu5Ac(a2-3)Gal(b1-4)GlcNAc(b1-3)Gal(b1-4)GlcNAc(b1-2)Man(a1-6)]Man(b1-4)GlcNAc(b1-4)GlcNAc
# Outline: as §1
# [4] = molecular target: Neu5Ac(a2-3)Gal(b1-4)GlcNAc(b1-3)Gal(b1-4)GlcNAc(b1-3)Gal(b1-4)GlcNAc
# Outline: as §1
# [5] = molecular target: Neu5Ac(a2-3)Gal(b1-4)GlcNAc(b1-3)Gal(b1-4)GlcNAc(b1-3)Gal(b1-4)GlcNAc(b1-2)Man(a1-3)[Neu5Ac(a2-3)Gal(b1-4)GlcNAc(b1-3)Gal(b1-4)GlcNAc(b1-3)Gal(b1-4)GlcNAc(b1-2)Man(a1-6)]GalNAc
# Outline: as §1
# [6] = molecular target: Neu5Ac(a2-3)Gal(b1-4)GlcNAc(b1-3)Gal(b1-4)GlcNAc(b1-3)GalNAc
# Outline: as §1
# [7] = molecular target: Neu5Ac(a2-3)Gal(b1-4)GlcNAc(b1-3)Gal(b1-4)GlcNAc(b1-3)[Neu5Ac(a2-3)Gal(b1-4)GlcNAc(b1-3)Gal(b1-4)GlcNAc(b1-6)]GalNAc
# Outline: as §1
# [8] = molecular target: Neu5Ac(a2-3)Gal(b1-4)GlcNAc(b1-3)Gal(b1-4)GlcNAc(b1-6)[Gal(b1-3)]GalNAc
# Outline: as §1
# [9] = molecular target: Neu5Ac(a2-3)Gal(b1-4)GlcNAc(b1-3)Gal(b1-4)[Fuc(a1-3)]GlcNAc
# Outline: as §1
# [10] = molecular target: Neu5Ac(a2-3)Gal(b1-4)GlcNAc(b1-3)GalNAc
# Outline: as §1
# [11] = molecular target: Neu5Ac(a2-3)Gal(b1-4)GlcNAc(b1-3)[Neu5Ac(a2-3)Gal(b1-4)GlcNAc(b1-6)]GalNAc
# Outline: as §1
# [12] = molecular target: Neu5Ac(a2-3)Gal(b1-4)GlcNAc(b1-6)GalNAc
# Outline: as §1
# [13] = molecular target: Neu5Ac(a2-3)Gal(b1-4)GlcNAc(b1-6)[Gal(b1-3)]GalNAc
# Outline: as §1
# [14] = molecular target: Neu5Ac(a2-3)Gal(b1-4)GlcNAc(b1-6)[Neu5Ac(a2-3)Gal(b1-3)]GalNAc
# Outline: as §1
# [15] = molecular target: Neu5Ac(a2-3)Gal(b1-4)GlcNAc6S
# Outline: as §1
# [16] = molecular target: Neu5Ac(a2-3)Gal(b1-4)[Fuc(a1-3)]GlcNAc
# Outline: as §1
# [17] = molecular target: Neu5Ac(a2-3)Gal(b1-4)[Fuc(a1-3)]GlcNAc(b1-2)Man
# Outline: as §1
# [18] = molecular target: Neu5Ac(a2-3)Gal(b1-4)[Fuc(a1-3)]GlcNAc(b1-3)Gal
# Outline: as §1
# [19] = molecular target: Neu5Ac(a2-3)Gal(b1-4)[Fuc(a1-3)]GlcNAc(b1-3)Gal(b1-4)GlcNAc
# Outline: as §1
# [20] = molecular target: Neu5Ac(a2-3)Gal(b1-4)[Fuc(a1-3)]GlcNAc(b1-3)Gal(b1-4)[Fuc(a1-3)]GlcNAc(b1-3)Gal(b1-4)[Fuc(a1-3)]GlcNAc
# Outline: as §1
# [21] = molecular target: Neu5Ac(a2-3)Gal(b1-4)[Fuc(a1-3)]GlcNAc(b1-3)GalNAc
# Outline: as §1
# [22] = molecular target: Neu5Ac(a2-3)Gal(b1-4)[Fuc(a1-3)]GlcNAc(b1-6)[Gal(b1-3)]GalNAc
# Outline: as §1
# [23] = molecular target: Neu5Ac(a2-3)Gal(b1-4)[Fuc(a1-3)]GlcNAc(b1-6)[Neu5Ac(a2-3)Gal(b1-3)]GalNAc
# Outline: as §1
# [24] = molecular target: Neu5Ac(a2-3)Gal(b1-4)[Fuc(a1-3)]GlcNAc6S
# Outline: as §1
# [25] = molecular target: Neu5Ac(a2-3)Gal6S(b1-4)GlcNAc
# Outline: as §1
# [26] = molecular target: Neu5Ac(a2-3)Gal6S(b1-4)[Fuc(a1-3)]GlcNAc
# Outline: as §1
# Neu5Ac(a2-3)GalNAc = molecular target: Neu5Ac(a2-3)GalNAc
# Outline: as §1
# [27] = molecular target: Neu5Ac(a2-3)GalNAc(b1-4)GlcNAc
# Outline: as §1
# [28] = molecular target: Neu5Ac(a2-3)[GalNAc(b1-4)]Gal(b1-4)Glc
# Outline: as §1
# [29] = molecular target: Neu5Ac(a2-3)[GalNAc(b1-4)]Gal(b1-4)GlcNAc
# Outline: as §1
# [30] = molecular target: Neu5Ac(a2-3)[GalNAc(b1-4)]Gal(b1-4)GlcNAc(b1-3)GalNAc
# Outline: as §1
# [31] = molecular target: Neu5Ac(a2-3)[Neu5Ac(a2-6)]GalNAc
# Outline: as §1
# Neu5Ac(a2-6)Gal = molecular target: Neu5Ac(a2-6)Gal
# Outline: as §1
# [32] = molecular target: Neu5Ac(a2-6)Gal(b1-3)GlcNAc(b1-3)[Gal(b1-4)GlcNAc(b1-6)]Gal(b1-4)Glc
# Outline: as §1
# Neu5Ac(a2-6)Gal(b1-4)Glc = molecular target: Neu5Ac(a2-6)Gal(b1-4)Glc
# Outline: as §1
# [33] = molecular target: Neu5Ac(a2-6)Gal(b1-4)GlcNAc
# Outline: as §1
# [34] = molecular target: Neu5Ac(a2-6)Gal(b1-4)GlcNAc(b1-2)Man
# Outline: as §1
# [35] = molecular target: Neu5Ac(a2-6)Gal(b1-4)GlcNAc(b1-2)Man(a1-3)Man(b1-4)GlcNAc(b1-4)GlcNAc
# Outline: as §1
# [36] = molecular target: Neu5Ac(a2-6)Gal(b1-4)GlcNAc(b1-2)Man(a1-3)[Gal(b1-4)GlcNAc(b1-2)Man(a1-6)]Man(b1-4)GlcNAc(b1-4)GlcNAc
# Outline: as §1
# [37] = molecular target: Neu5Ac(a2-6)Gal(b1-4)GlcNAc(b1-2)Man(a1-3)[GlcNAc(b1-2)Man(a1-6)]Man(b1-4)GlcNAc(b1-4)GlcNAc
# Outline: as §1
# [38] = molecular target: Neu5Ac(a2-6)Gal(b1-4)GlcNAc(b1-2)Man(a1-3)[GlcNAc(b1-4)][Neu5Ac(a2-6)Gal(b1-4)GlcNAc(b1-2)Man(a1-6)]Man(b1-4)GlcNAc(b1-4)GlcNAc
# Outline: as §1
# [39] = molecular target: Neu5Ac(a2-6)Gal(b1-4)GlcNAc(b1-2)Man(a1-3)[Man(a1-6)]Man(b1-4)GlcNAc(b1-4)GlcNAc
# Outline: as §1
# [40] = molecular target: Neu5Ac(a2-6)Gal(b1-4)GlcNAc(b1-2)Man(a1-3)[Neu5Ac(a2-3)Gal(b1-4)GlcNAc(b1-2)Man(a1-6)]Man(b1-4)GlcNAc(b1-4)GlcNAc
# Outline: as §1
# [41] = molecular target: Neu5Ac(a2-6)Gal(b1-4)GlcNAc(b1-2)Man(a1-3)[Neu5Ac(a2-6)Gal(b1-4)GlcNAc(b1-2)Man(a1-6)]Man(b1-4)GlcNAc(b1-4)GlcNAc
# Outline: as §1
# [42] = molecular target: Neu5Ac(a2-6)Gal(b1-4)GlcNAc(b1-2)Man(a1-3)[Neu5Ac(a2-6)Gal(b1-4)GlcNAc(b1-2)Man(a1-6)]Man(b1-4)GlcNAc(b1-4)[Fuc(a1-6)]GlcNAc
# Outline: as §1
# [43] = molecular target: Neu5Ac(a2-6)Gal(b1-4)GlcNAc(b1-2)Man(a1-6)Man(b1-4)GlcNAc(b1-4)GlcNAc
# Outline: as §1
# [44] = molecular target: Neu5Ac(a2-6)Gal(b1-4)GlcNAc(b1-2)Man(a1-6)[Gal(b1-4)GlcNAc(b1-2)Man(a1-3)]Man(b1-4)GlcNAc(b1-4)GlcNAc
# Outline: as §1
# [45] = molecular target: Neu5Ac(a2-6)Gal(b1-4)GlcNAc(b1-2)Man(a1-6)[GlcNAc(b1-2)Man(a1-3)]Man(b1-4)GlcNAc(b1-4)GlcNAc
# Outline: as §1
# [46] = molecular target: Neu5Ac(a2-6)Gal(b1-4)GlcNAc(b1-2)Man(a1-6)[Man(a1-3)]Man(b1-4)GlcNAc(b1-4)GlcNAc
# Outline: as §1
# [47] = molecular target: Neu5Ac(a2-6)Gal(b1-4)GlcNAc(b1-2)[Neu5Ac(a2-6)Gal(b1-4)GlcNAc(b1-4)]Man(a1-3)[GlcNAc(b1-4)][Neu5Ac(a2-6)Gal(b1-4)GlcNAc(b1-2)[Neu5Ac(a2-6)Gal(b1-4)GlcNAc(b1-6)]Man(a1-6)]Man(b1-4)GlcNAc(b1-4)GlcNAc
# Outline: as §1
# [48] = molecular target: Neu5Ac(a2-6)Gal(b1-4)GlcNAc(b1-2)[Neu5Ac(a2-6)Gal(b1-4)GlcNAc(b1-4)]Man(a1-3)[GlcNAc(b1-4)][Neu5Ac(a2-6)Gal(b1-4)GlcNAc(b1-4)Man(a1-6)]Man(b1-4)GlcNAc(b1-4)GlcNAc
# Outline: as §1
# [49] = molecular target: Neu5Ac(a2-6)Gal(b1-4)GlcNAc(b1-2)[Neu5Ac(a2-6)Gal(b1-4)GlcNAc(b1-6)]Man(a1-6)[Neu5Ac(a2-6)Gal(b1-4)GlcNAc(b1-2)Man(a1-3)][GlcNAc(b1-4)]Man(b1-4)GlcNAc(b1-4)GlcNAc
# Outline: as §1
binder,measurement,setting,value
B1,glycan array binding signal (z-score),[1],-0.146
same,glycan array binding signal (z-score),[2],-0.135
same,glycan array binding signal (z-score),[3],0.143
same,glycan array binding signal (z-score),[4],-0.122
same,glycan array binding signal (z-score),[5],0.264
same,glycan array binding signal (z-score),[6],-0.107
same,glycan array binding signal (z-score),[7],-0.058
same,glycan array binding signal (z-score),[8],0.048
same,glycan array binding signal (z-score),[9],-0.141
same,glycan array binding signal (z-score),[10],-0.144
same,glycan array binding signal (z-score),[11],-0.094
same,glycan array binding signal (z-score),[12],-0.064
same,glycan array binding signal (z-score),[13],-0.109
same,glycan array binding signal (z-score),[14],-0.106
same,glycan array binding signal (z-score),[15],-0.156
same,glycan array binding signal (z-score),[16],-0.134
same,glycan array binding signal (z-score),[17],-0.089
same,glycan array binding signal (z-score),[18],-0.146
same,glycan array binding signal (z-score),[19],-0.118
same,glycan array binding signal (z-score),[20],-0.125
same,glycan array binding signal (z-score),[21],-0.015
same,glycan array binding signal (z-score),[22],-0.032
same,glycan array binding signal (z-score),[23],0.124
same,glycan array binding signal (z-score),[24],-0.112
same,glycan array binding signal (z-score),[25],-0.135
same,glycan array binding signal (z-score),[26],-0.13
same,glycan array binding signal (z-score),Neu5Ac(a2-3)GalNAc,-0.165
same,glycan array binding signal (z-score),[27],-0.125
same,glycan array binding signal (z-score),[28],4.19
same,glycan array binding signal (z-score),[29],3.09
same,glycan array binding signal (z-score),[30],0.136
same,glycan array binding signal (z-score),[31],-0.163
same,glycan array binding signal (z-score),Neu5Ac(a2-6)Gal,-0.14
same,glycan array binding signal (z-score),[32],-0.106
same,glycan array binding signal (z-score),Neu5Ac(a2-6)Gal(b1-4)Glc,-0.09
same,glycan array binding signal (z-score),[33],-0.103
same,glycan array binding signal (z-score),[34],-0.127
same,glycan array binding signal (z-score),[35],-0.098
same,glycan array binding signal (z-score),[36],-0.116
same,glycan array binding signal (z-score),[37],-0.171
same,glycan array binding signal (z-score),[38],-0.164
same,glycan array binding signal (z-score),[39],-0.136
same,glycan array binding signal (z-score),[40],-0.131
same,glycan array binding signal (z-score),[41],-0.122
same,glycan array binding signal (z-score),[42],0.039
same,glycan array binding signal (z-score),[43],-0.188
same,glycan array binding signal (z-score),[44],-0.144
same,glycan array binding signal (z-score),[45],-0.094
same,glycan array binding signal (z-score),[46],-0.14
same,glycan array binding signal (z-score),[47],-0.046
same,glycan array binding signal (z-score),[48],-0.063
same,glycan array binding signal (z-score),[49],-0.191
